The record followed here is PubChem BioAssay AID1240 (Sanford-Burnham Center for Chemical Genomics, 2008).

About 800 (1.6%) of roughly 50,000 compounds showed an effect of 50% or more. This is one part of the list.

This assay deals with Bcl-2-like protein 10 (Homo sapiens) (UniProt Q9HD36). The experiment in a line: TR3 peptide-Bcl-B binding displacers, biochemical primary FP assay, phenotype converters (AID 1240).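 Also: 0% = Bcl-B with tracer peptide and DMSO and 100% = tracer peptide lacking Bcl-B.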 To be noted: GST-Bcl-B / FITC-TR3 peptide fluorescence polarization; stronger effect = higher value; compound at 3.75 mg/L. A general note: Fluorescence polarisation rises when a labelled molecule tumbles more slowly, as on binding a larger partner.
UniProt Q9HD36, sequence (Q9HD36 whole entry, looked up): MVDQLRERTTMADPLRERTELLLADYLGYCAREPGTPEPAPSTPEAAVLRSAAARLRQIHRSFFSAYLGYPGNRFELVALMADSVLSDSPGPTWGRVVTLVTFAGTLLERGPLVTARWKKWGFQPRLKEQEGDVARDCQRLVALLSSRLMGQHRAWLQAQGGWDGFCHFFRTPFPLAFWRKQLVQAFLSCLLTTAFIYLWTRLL
For the molecule `CCOc1cc(OCC)cc(C(=O)Nc2cc(C(=O)OC)cc(C(=O)OC)c2)c1`, the displacement stood at 6.7%.
The figure for `COc1ccc(C2=NN(C(=O)CCC(=O)O)C(c3ccc(OC)c(OC)c3)C2)cc1` (stereo not given) is 16.9%; for `CC(C)COc1cccc(-c2cc(C(=O)O)c3ccccc3n2)c1` it is -0.4%; for `CCOC(=O)c1c(NC(=O)c2ccc([N+](=O)[O-])cc2)sc2c1CCC(C)C2` (stereo not given) it is -4.3%.
The figure for `O=C(NCc1ccc2c(c1)OCO2)c1ccco1` is 13%.
The same measure for `O=C(N/N=C/c1nc2ccccc2n1Cc1ccccc1)c1ccccc1`: -2.6%.
On to `COc1cccc(N(CC(=O)Nc2cc(C)ccc2C)S(=O)(=O)c2ccccc2)c1`, for which the displacement is -5.8%.
The same measure for `O=c1cc(NC2CCCCC2)c2ccccc2n1-c1ccccc1`: -2.4%; for `CCCC(=O)NS(=O)(=O)c1ccc(NC(=O)c2cccc(Br)c2)cc1`: 5.9%.
The same measure for `O=C1Nc2ccccc2C1=Cc1nc2ccccc2c(=O)n1-c1ccccc1[N+](=O)[O-]`: -5.1%.
The same measure for `S=c1nc2c(n[nH]1)c1ccccc1n2Cc1ccccc1`: -6%; for `CC1=C(C(=O)Nc2ccccc2)C(c2ccc(Cl)cc2)N2C(=O)CSC2=N1` (stereo not given): -14.3%.
Regarding `COC(=O)C1=C(C)N(c2ccc(C)c(C)c2)/C(=C/c2ccc(OC)cc2)C1=O`, the displacement turned out to be 14.1%.
The same measure for `NC(=O)c1ccc(NC(=O)C2CCCC2)cc1`: -4%; for `Cc1ccc(/C=C/C(=O)Nc2ncc(Cc3ccc(F)cc3)s2)o1`: 7%; for `CCC(=O)Nc1ccc(NC(=O)/C=C/c2ccccc2)cc1`: -3.3%.
The figure for `CN(C)c1ccc(/C=C2\SC(=S)N(NC(=O)c3ccccc3Cl)C2=O)cc1` is -1.7%; for `CCOC(=O)C1=C(O)/C(=C/c2cccc(Oc3ccccc3)c2)SC1=Nc1ccccc1` it is -8.3%.
The same measure for `O=C(NNC1=C(C(=O)C(F)(F)F)CCC1)c1ccc(-c2ccccc2)cc1`: -14.2%.
In the case of `CCOC(=O)c1ccc(NC(=O)CN(c2ccc(Cl)cc2C)S(=O)(=O)c2ccccc2)cc1`, the displacement is -7.4%.
The figure for `CCOC(=O)c1c(NC(=O)c2cccnc2)sc2c1CCCC2` is 11.4%; for `COc1ccc(-n2c(SCC(=O)c3ccccc3)nc3sc4c(c3c2=O)CCC4)cc1` it is -14.1%.
The same measure for `COc1cc(/C=C2/SC(=S)N(CC(=O)Nc3ccc(F)c(Cl)c3)C2=O)cc(OC)c1OC`: -4.7%.
The figure for `CC(C)(C)c1ccc(/C=c2\sc3nnc(-c4ccccc4)n3c2=O)cc1` is -4.5%; for `O=C(O)C(Oc1ccc2c(-c3ccccc3)cc(=O)oc2c1)c1ccccc1` (stereo not given) it is -9%.
For the molecule `CC(C)Nc1nc(NC(N)=S)nc(NC(C)C)n1`, the displacement was -4%.
Turning to `CCN(CC)CCCCCCOc1ccc(C)c(C)c1`, the displacement is 3.7%.
The figure for `O=C(c1ccc(Cl)cc1Cl)N1CCN(c2nc3ccc([N+](=O)[O-])cc3s2)CC1` is 100%.
The same measure for `CCOc1cccc(-c2nnc(NC(=O)c3ccccc3F)s2)c1`: 13.5%; for `OCCNCCCOc1ccc(F)cc1`: 3.2%.
The figure for `NNC(=O)CSc1ccc2ccccc2n1` is 4.9%; for `N/C(=C/C(=O)c1ccc(Cl)cc1)C(F)(F)F` it is -2.6%.
On to `COc1ccc(Cc2nc3ccccc3c(=O)n2/N=C/c2c[nH]c3ccccc23)cc1OC`, for which the displacement is -4%.
The figure for `CC(=O)C1(Nc2ccccc2)CC(C)=NN1C(=O)c1ccccc1` (stereo not given) is 7%; for `O=C(Nc1nc(-c2ccccc2)cs1)c1cc2ccccc2oc1=O` it is 1.7%; for `COCCOC(=O)c1c(C)oc2ccc(O)cc12` it is 10.8%.
For `O=C(Nc1ccccc1[N+](=O)[O-])c1ccccc1Cl`, the displacement was found to be 8.4%.
The same measure for `Cc1cc(Cl)ccc1OCCCC(=O)Nc1cc(Cl)ccc1Cl`: 0.3%; for `NC(=O)c1cccc(N=Cc2ccc(C=Nc3cccc(C(N)=O)c3)cc2)c1`: -7.2%.
The same measure for `COc1ccc(OC)c(/C=C2/SC(=S)N(c3ccccc3OC)C2=O)c1`: -0.9%.
The same measure for `COC(=O)c1ccc(NC(=O)CC2CCC2)cc1`: 3.3%; for `NS(=O)(=O)c1ccc(N=Cc2ccc(Cl)cc2)cc1`: 3.2%; for `O=C(Nc1ccc([N+](=O)[O-])cn1)C1CC1`: 12.6%.
`Cc1ccc(S(N)(=O)=O)cc1NC(=O)c1ccc(C(C)(C)C)cc1`: the displacement was -10.3%.
The same measure for `CCOC(=O)Nc1cc([N+](=O)[O-])ccc1Cl`: 6.6%; for `COC(=O)c1sccc1NC(=O)c1cc(-c2ccc(OC)cc2OC)nc2ccccc12`: 16.4%.
`Brc1ccc(-c2nc(NCCCN3CCOCC3)c3ccccc3n2)cc1`: the displacement amounted to 10.2%.
Take `COC(=O)CSc1nnc2n(-c3ccc(OC)cc3)c(=O)c3c4c(sc3n12)COC(C)(C)C4`: the displacement amounted to 3.8%.
In the case of `CCc1c(C)nc2ccc(C)cc2c1SCC(=O)O`, the displacement was 9.8%.
Regarding `O=C(NCc1ccccc1)c1ccccc1Cl`, the displacement came out at 13%.
With `O=C(c1ccco1)N1CCN(C/C=C/c2ccccc2)CC1`, the displacement is -7.3%.
The same measure for `O=C(N1CCOCC1)n1nnc2ccccc21`: 13.2%.
On to `O=C(CN(c1ccc(Br)cc1)S(=O)(=O)c1ccccc1)Nc1ccccc1F`, for which the displacement is -7.8%.
Regarding `O=C1ON=C(c2ccc(Cl)cc2)/C1=C/c1ccc(O)cc1`, the displacement is 4.4%.
Regarding `COc1ccccc1N(CC(=O)N(C)Cc1ccccc1)S(=O)(=O)c1ccccc1`, the displacement was -0.1%.
The figure for `Cc1ccc(C(=O)NCCNc2ccc([N+](=O)[O-])cc2Cl)cc1` is 1.9%; for `Cc1c(/C=C2\SC(=S)NC2=O)c(=O)n(-c2ccccc2)n1C` it is 22.8%; for `Cc1cccc(N2C(=O)/C(=C/c3ccco3)SC2=S)c1C` it is 1.9%.
The same measure for `CCOc1cc(/C=C2\SC(=S)N(CCS(=O)(=O)O)C2=O)ccc1O`: -60.3%; for `CCOC(=O)c1c(-c2ccc(OC)cc2)csc1NC(=O)C(C)C`: -1%; for `Cc1ccc(C(=O)Nc2sc3c(c2C#N)CCCCC3)o1`: 3.6%.
In the case of `COc1ccc(C(O)(CNCc2ccccc2)c2ccc(Br)cc2)cc1` (stereo not given), the displacement was found to be 13.2%.
The same measure for `COc1ccccc1C(=O)Nc1cccc(C(F)(F)F)c1`: 19.7%; for `Cc1nn(-c2ccccc2)c2c1C(c1ccc(O)cc1)C(C#N)=C(N)O2` (stereo not given): 7.2%.
On to `O=C(NC(Nc1cccc([N+](=O)[O-])c1)C(Cl)(Cl)Cl)c1cccc(I)c1` (stereo not given), for which the displacement is -9.6%.
For `O=C1CC(Sc2ncn[nH]2)C(=O)N1c1cc(Cl)ccc1Cl` (stereo not given), the displacement came to 16.7%.
The same measure for `C=CCn1c(SCC(=O)c2ccc(Br)cc2)nc2sc3c(c2c1=O)CCC3`: -3.1%.
The figure for `COc1ccccc1N1CCN(C(=O)COc2ccc(Br)c(C)c2)CC1` is -6.5%; for `O=[N+]([O-])c1ccc(S(=O)(=O)Nc2cccc3ccccc23)cc1` it is 0.9%; for `CCCCOc1ccc(NC(=O)Nc2cc(F)c(F)cc2Cl)cc1` it is -14.3%.
The same measure for `O=C(COc1ccc(Br)cc1)Nc1cccc([N+](=O)[O-])c1`: 4.5%.
As to `Cc1csc(N(CCC(N)=O)CCC(N)=O)n1`, the displacement was 2.1%.
The same measure for `CC1=CC(C)(C)Nc2ccc(OC(=O)C(C)N3C(=O)c4ccccc4C3=O)cc21` (stereo not given): 6.1%; for `Cc1ccc2c(c1)NC(C)(C)c1sn(-c3ccc(Cl)c(F)c3)c(=S)c1-2`: 8.7%.
Take `CC12c3ccccc3C(c3ccccc31)C1C(=O)N(c3cccc([N+](=O)[O-])c3)C(=O)C12` (stereo not given): the displacement came to 41.8%.
The same measure for `O=C(NCc1cccnc1)c1cnn2c1NC(c1ccc(F)cc1)CC2C(F)(F)F` (stereo not given): 5.1%; for `O=C1CC(c2ccccc2)CC(O)=C1C=Nc1ccccc1-c1ccccc1` (stereo not given): -32.5%; for `Cc1ccc(NC(=O)C(=O)N/N=C/c2cccs2)cc1`: 10.6%.
The same measure for `COC(=O)CCN1C(=O)/C(=C/c2ccc(OCc3ccc(Cl)cc3)c(OC)c2)SC1=S`: 24.7%; for `C=CCNC1=C(Cl)C(=O)c2ccccc2C1=O`: 8.2%.
The same measure for `CCOC(=O)C(=CNc1cccc(C(=O)O)c1)C(=O)OCC`: 7.4%; for `O=C(Nc1cccc(O)c1)c1cccnc1`: -5.9%; for `O=C(CN1CC[n+]2c(-c3cccs3)csc21)c1ccccc1`: -8.6%.
In the case of `COc1ccc(OC)c(N2C(=O)CCC2=O)c1`, the displacement came out at 8.6%.
With `COc1ccccc1N(CC(=O)Nc1ccc(Oc2ccccc2)cc1)S(=O)(=O)c1ccccc1`, the displacement is -6.2%.
The same measure for `OC1CC(c2ccccc2)NC2(CCCCC2)C1` (stereo not given): 5%.
The figure for `CCOc1ccc(C(=O)Nc2ccc(OC(F)(F)F)cc2)cc1` is -4.5%.
The same measure for `O=C(COc1ccc(Br)cc1)Nc1ccc([N+](=O)[O-])cc1`: -0.4%; for `CC(=O)c1ccc(NC(=O)c2ccc3c(c2)C(=O)N(c2ccc(C)c(C)c2)C3=O)cc1`: 8.9%.
With `O=C(Nc1cc(C(F)(F)F)ccc1Cl)C1CC(=O)N(c2ccc(Br)cc2)C1` (stereo not given), the displacement is 12.1%.
The same measure for `O=c1sc2ccccc2c(N2CCN(c3ccccc3)CC2)c1[N+](=O)[O-]`: -11.1%.
The figure for `Cc1c(NC(=O)/C=C/c2cn(-c3ccccc3)nc2-c2ccccc2)c(=O)n(-c2ccccc2)n1C` is 70%; for `CC(C)(C)C1CCc2c(sc(NC(=O)c3cccs3)c2C(N)=O)C1` (stereo not given) it is -9.9%.
The same measure for `CCOc1ccc(C(=O)COC(=O)c2ccc(C)cc2)cc1`: 2.4%.
Turning to `CCCCCC(=O)c1c(C)nn(C)c1C`, the displacement turned out to be 10.7%.
With `CCOC(=O)C1=C(C)N=c2s/c(=C\c3sccc3C)c(=O)n2C1c1cccs1` (stereo not given), the displacement came to 12.4%.
The same measure for `C=CCOC(=O)C1=C(C)NC(C)=C(C(=O)OCC=C)C1c1ccc(C)cc1`: 7.3%; for `COc1ccc(NC(=O)Nc2nnc(-c3ccc(C)cc3)s2)cc1`: 13.2%; for `O=C(NCCCO)C(=O)NCCc1ccc(Cl)cc1`: 8.8%.
The same measure for `O=C(CSc1nnnn1-c1ccccc1)Nc1cc2c(cc1Br)OCCO2`: 2.5%; for `CCOc1ccccc1NC(=O)c1ccc(OC)cc1OC`: 10.5%.
The same measure for `Cc1cc([N+](=O)[O-])ccc1NC(=O)COc1ccccc1C`: 2.4%.
Consider `CC1=C(C(=O)Nc2cccc(C)c2)C(c2ccc(Br)cc2)NC(=S)N1` (stereo not given), for which the displacement was found to be 3.2%.
The same measure for `CCCc1c(C)c2c(OCC(=O)O)cc(OCC(=O)O)cc2oc1=O`: 18.9%; for `COCCOC(=O)c1c(C)oc2ccc(OCC(=O)C(C)(C)C)cc12`: 9%; for `COC(=O)c1c(NC(=O)c2cccc(F)c2)sc2c1CCC(C)C2` (stereo not given): 4.5%.
The same measure for `Cn1nccc1C(=O)Nc1nc2ccccc2s1`: -3.1%.
As to `CC(C)(C)c1ccc(Oc2coc3c(CN4CCOCC4)c(O)ccc3c2=O)cc1`, the displacement turned out to be 9%.
The figure for `N#C/C(=C/c1ccc(-c2ccc(Cl)cc2)o1)C(=O)O` is -0.8%; for `CCN(CC)CCCNC(=O)c1nn2c(c1Cl)NC(c1ccc(C)cc1)CC2C(F)(F)F` (stereo not given) it is 0.5%.
